In PMC4336329 (PLoS ONE, 2015):
About 14,000 (4.5%) of roughly 310,000 compounds showed an effect of 50% or more. Effects have a minus sign here. The list shows a part of the results.

biological target: human ether-à-go-go-related gene (hERG) potassium channel (human, UniProt Q12809); experiment: primary screen, population patch clamp on CHO cells stably expressing hERG
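Further: peak tail current of the secondary pulse compared with the same well before compound.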

Sequence of human ether-à-go-go-related gene (hERG) potassium channel (Q12809 whole entry, looked up): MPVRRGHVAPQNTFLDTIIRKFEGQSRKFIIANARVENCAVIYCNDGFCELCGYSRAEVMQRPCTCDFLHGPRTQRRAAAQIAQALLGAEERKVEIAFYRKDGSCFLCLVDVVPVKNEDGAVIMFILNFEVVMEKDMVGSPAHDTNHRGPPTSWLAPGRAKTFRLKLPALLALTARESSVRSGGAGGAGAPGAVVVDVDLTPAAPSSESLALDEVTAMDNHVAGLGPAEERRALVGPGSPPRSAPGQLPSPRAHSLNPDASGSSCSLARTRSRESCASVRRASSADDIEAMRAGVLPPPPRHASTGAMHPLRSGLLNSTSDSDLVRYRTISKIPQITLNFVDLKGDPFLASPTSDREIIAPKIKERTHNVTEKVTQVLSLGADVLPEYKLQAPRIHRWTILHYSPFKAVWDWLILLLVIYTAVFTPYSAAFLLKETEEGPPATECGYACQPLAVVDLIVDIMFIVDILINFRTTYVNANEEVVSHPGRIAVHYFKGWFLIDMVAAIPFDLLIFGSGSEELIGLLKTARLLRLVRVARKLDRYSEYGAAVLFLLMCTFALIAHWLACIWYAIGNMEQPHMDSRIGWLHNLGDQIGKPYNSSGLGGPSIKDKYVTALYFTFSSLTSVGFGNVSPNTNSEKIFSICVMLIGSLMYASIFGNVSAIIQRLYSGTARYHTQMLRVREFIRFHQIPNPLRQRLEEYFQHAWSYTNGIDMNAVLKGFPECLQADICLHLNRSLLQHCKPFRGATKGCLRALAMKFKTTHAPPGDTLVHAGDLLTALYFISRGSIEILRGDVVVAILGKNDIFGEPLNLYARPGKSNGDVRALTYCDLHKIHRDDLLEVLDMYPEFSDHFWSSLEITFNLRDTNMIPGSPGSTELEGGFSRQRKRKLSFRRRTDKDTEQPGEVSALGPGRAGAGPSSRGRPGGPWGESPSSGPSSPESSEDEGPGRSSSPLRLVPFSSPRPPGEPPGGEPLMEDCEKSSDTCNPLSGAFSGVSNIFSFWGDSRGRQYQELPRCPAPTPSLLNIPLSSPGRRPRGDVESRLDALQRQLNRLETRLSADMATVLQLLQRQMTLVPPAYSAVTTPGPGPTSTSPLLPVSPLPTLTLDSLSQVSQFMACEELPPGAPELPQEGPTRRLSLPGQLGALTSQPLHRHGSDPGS

Compared with `CC(=O)N1N=C(c2ccccc2)CC1c1cn(C)c2ccccc12` (stereo not shown), `CCOc1ccccc1N(C)C(=O)c1cn(C)c(=O)c2ccccc12` is higher in “hERG current change (%, negative = inhibition) at 10uM” value: -13.2% for the first, 22.2% for the second.

Going from `COc1cc(S(=O)(=O)Nc2ccc(C)cc2)ccc1N=Cc1c(C)c(C#N)c(=O)n(C)c1O` to `Cn1c(O)c(C=Nc2ccccc2Sc2ccccc2)c(=O)n(C)c1=O`, the “hERG current change (%, negative = inhibition) at 10uM” value rises from 12.9% to 16.4%.

Going from `O=C(C1=C[C@@H](C2CC2)C[C@@H](OCCCCO)O1)N1CCN(Cc2ccc3c(c2)OCO3)CC1` to `COc1ccc(C(=O)N2CCN(Cc3ccccn3)CC2)cc1.O=C(O)C(=O)O`, the “hERG current change (%, negative = inhibition) at 10uM” value rises from -11.1% to -5.82%.

First: CC(C)(C)C(=O)NCCCNc1ccc([N+](=O)[O-])cc1
Second: Cc1ccc(C(=O)Nc2ccc(C(=O)O)cc2)cc1S(=O)(=O)Nc1cccc([N+](=O)[O-])c1
The “hERG current change (%, negative = inhibition) at 10uM” value of the first is lower: -24.7% for the first, 14.4% for the second.

Going from `CSCCC(NC(=O)/C(=C/c1ccc2c(c1)OCO2)NC(=O)c1cccc([N+](=O)[O-])c1)C(=O)O` (stereo not shown) to `O=C(Cc1c(C(=O)O)[nH]c2ccc(Cl)cc12)Nc1ccc2c(c1)OCCO2`, the “hERG current change (%, negative = inhibition) at 10uM” value rises from 1.16% to 1.71%.

Compared with `CCOCCOC(=O)c1cccc2c1-c1ccccc1C2=O`, `CCOC(=O)c1cnc(-c2ccccc2)nc1Oc1cccc(Cl)c1` is higher in “hERG current change (%, negative = inhibition) at 10uM” value: -2.53% for the first, 11.6% for the second.

Compared with `CCOC(=O)C(C)n1cnc2c(nnn2-c2ccc(OC)cc2)c1=O` (stereo not shown), `COc1ccc(Oc2nc(C)nc3c2oc2ccccc23)cc1` is higher in “hERG current change (%, negative = inhibition) at 10uM” value: -13.2% for the first, 13.8% for the second.

First: CC(=O)Nc1ccc(N(C(=O)Cn2nnc3ccccc32)C(C(=O)NC2CCCC2)c2ccc(O)c(O)c2)cc1 (stereo not shown)
Second: COc1ccc(NS(=O)(=O)c2ccc(NC(=S)NC(=O)c3cccc(F)c3)cc2)nn1
The “hERG current change (%, negative = inhibition) at 10uM” value of the first is higher: 21.1% for the first, 15.9% for the second.

Compared with `COC(=O)CSc1nc2c(c(-c3ccc(O)cc3)c1C#N)CCCC2`, `Cc1ccc(C2=NN(CC(=O)NCCC(C)C)C(=O)CC2)cc1` is lower in “hERG current change (%, negative = inhibition) at 10uM” value: 16.3% for the first, 4.58% for the second.

Compared with `Cc1ccccc1NC(=O)CSc1nnc(NC(=O)c2ccco2)s1`, `Cc1ccc(NC(=O)c2ccc(CSc3nnc(C)s3)cc2)c(C)c1` is higher in “hERG current change (%, negative = inhibition) at 10uM” value: 1.36% for the first, 8.94% for the second.

Compared with `Cc1c(C(=O)OC/C(O)=C(\C#N)c2nc3ccccc3[nH]2)oc2ccc(Br)cc12`, `CC(=O)c1sc2nc(-c3ccccc3)cc(C)c2c1N` is higher in “hERG current change (%, negative = inhibition) at 10uM” value: 10.1% for the first, 19.8% for the second.

First: Clc1ccc(OCCCNCc2ccccc2)c2ccccc12.O=C(O)C(=O)O
Second: O=C(Nc1ccccc1C(=O)Nc1ccccc1C(=O)O)c1ccccc1
The “hERG current change (%, negative = inhibition) at 10uM” value of the first is lower: -1.92% for the first, 20.5% for the second.

Going from `N#Cc1ccc(OCC(=O)NCCc2ccc(S(N)(=O)=O)cc2)cc1` to `CN(C)S(=O)(=O)c1ccc(NC(=O)CN2C(=O)NC(Cc3ccccc3)C2=O)cc1` (stereo not shown), the “hERG current change (%, negative = inhibition) at 10uM” value rises from -2.1% to 10.2%.

Going from `CC1(C(=O)N(CC(=O)NC2CCCC2)Cc2ccco2)CC(=O)N=C2C=CC=CN21` (stereo not shown) to `CCOc1cc(CNCc2ccccc2)ccc1OCC(=O)NC1CCCCC1`, the “hERG current change (%, negative = inhibition) at 10uM” value falls from 5.74% to -25.6%.

Compared with `Cc1ccccc1-n1c(SC(C)C(N)=O)nnc1-c1cccnc1` (stereo not shown), `O=Cc1cn(Cc2ccccc2)nc1-c1cccnc1` is higher in “hERG current change (%, negative = inhibition) at 10uM” value: -6.92% for the first, 7.48% for the second.

First: Cc1ccc(N(C)C(=O)CCS(=O)(=O)c2cc3c(cc2Cl)NC(=O)CO3)cc1
Second: CCN(c1ccccc1)S(=O)(=O)c1ccc(C(=O)Nc2ccc(C)cn2)cc1
The “hERG current change (%, negative = inhibition) at 10uM” value of the first is lower: -20.3% for the first, -15.4% for the second.

Compared with `O=C(CCN1CCN(S(=O)(=O)c2ccc(F)cc2)CC1)Nc1ccccc1F`, `O=C(/C=C/c1c(Cl)nc2ccccn12)Nc1ccc(F)cc1` is higher in “hERG current change (%, negative = inhibition) at 10uM” value: -8.34% for the first, 15.3% for the second.

Going from `Cc1ccc(N/C(N)=N/c2nc(C)cc(N3CCCCC3)n2)c(C)c1` to `CCCN(CCC)C(=O)c1cn(CC)c2ccc(S(=O)(=O)N3CCCCC3)cc2c1=O`, the “hERG current change (%, negative = inhibition) at 10uM” value rises from -83% to -10.5%.

First: CCN1CCN(c2ncnc3c2nnn3Cc2ccccc2)CC1
Second: CC(=O)c1c(N2CCN(C)CC2)nc(=S)n(Cc2ccccc2)c1C
The “hERG current change (%, negative = inhibition) at 10uM” value of the first is lower: -19.3% for the first, -3.14% for the second.

Compared with `CC(C)(C)OC(=O)NC1CNNC1=O` (stereo not shown), `COc1cccc(CN2CCNC(=O)C2CC(=O)NCCc2nc(C)c(C)s2)c1OC` (stereo not shown) is higher in “hERG current change (%, negative = inhibition) at 10uM” value: 12.9% for the first, 17.9% for the second.

Compared with `Cc1cc(C(=O)Nc2cc(Br)ccc2O)on1`, `Cc1ccc(NC(=S)Nc2cc(C)on2)cc1` is lower in “hERG current change (%, negative = inhibition) at 10uM” value: 24% for the first, 6.71% for the second.

Compared with `Cc1nnc(SCC(=O)Nc2ccc(S(=O)(=O)Nc3ccc(Cl)nn3)cc2)s1`, `CN(C)c1ccc(/C=N/Nc2ccc(-n3ccnc3)nn2)cc1` is lower in “hERG current change (%, negative = inhibition) at 10uM” value: 15.6% for the first, -1.01% for the second.

First: COc1ccc(S(=O)(=O)C(C#N)c2nc3ccccc3nc2N2CCC(C)CC2)cc1 (stereo not shown)
Second: Cc1ccc(C(=O)NN(CCC(=O)NC(C)(C)C)C2=NS(=O)(=O)c3ccccc32)cc1
The “hERG current change (%, negative = inhibition) at 10uM” value of the first is higher: 18.6% for the first, -4.88% for the second.

First: c1ccc(C2COC(c3cccs3)=N2)cc1 (stereo not shown)
Second: Cc1ccccc1C(=O)Nc1ccccc1C(=O)NCC(C)C
The “hERG current change (%, negative = inhibition) at 10uM” value of the first is higher: -1.21% for the first, -5.58% for the second.

Compared with `COc1cc(/C=C/CN2CCC(CO)(CC3CCCCO3)CC2)ccc1O` (stereo not shown), `NC(=O)c1c(NC(=O)Cn2nc(C(=O)O)c3ccccc3c2=O)sc2c1CCC2` is higher in “hERG current change (%, negative = inhibition) at 10uM” value: -19.1% for the first, 22.7% for the second.

Compared with `CCCSc1nc2[nH]ncc2c(=O)[nH]1`, `C=C(Br)Cn1c(CC)nc2ccccc21` is higher in “hERG current change (%, negative = inhibition) at 10uM” value: 2.49% for the first, 14.1% for the second.

Compared with `Cl.N[C@@H](Cc1c[nH]c2ccccc12)c1nnc(SCc2ccc(Cl)cc2)o1`, `Cc1cc(C)cc(NC(=O)COC(=O)CCCNC(=O)c2ccc(Cl)cc2)c1` is lower in “hERG current change (%, negative = inhibition) at 10uM” value: -20.8% for the first, -40.7% for the second.

In the case of `COC(=O)NC(=S)Nc1ccc(Oc2ccc(Cl)cc2Cl)c(Cl)c1`, the “hERG current change (%, negative = inhibition) at 10uM” value was 22.6%.
